# Assay results as given in publication PMC12040169 (PLOS Biology, 2025).
# The list shows a part of the results.
# Test system: T1, C. trachomatis L2/434/Bu expressing GFP (CTL2-GFP)
# T1 construct: L2/434/Bu GFP intracellular growth in HeLa cells
# Set-up: species or system HeLa; C. trachomatis total inclusion area by high-content imaging, normalised to DMSO
# Settings: total inclusion area; 28.5 h, 10 µM; inhibitor
# How it was run: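 After bulk GFP and resorufin fluorescence reads, cells were fixed, stained with Hoechst and imaged by high-content microscopy. Inclusion area and number (GFP) stood in for chlamydial growth, nuclei count (Hoechst) for host cell viability. MICs were derived as for the bulk readout.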
row,SMILES,% of control remaining
1,COc1ccccc1CNCc1ccc(CNC(=O)OC(C)(C)C)cc1 [CBK056702],66.6623
2,O=C(Cn1cc(-c2ccc(CN3CCOCC3)cc2)nn1)NCc1cccc(C(F)(F)F)c1 [CBK165803],82.8239
3,CC(C)CC(C(=O)Nc1ccc(Br)cc1)N1C(=O)c2ccccc2C1=O (stereo not drawn) [CBK264253],89.6688
4,NC(=O)c1ccc(-c2cc(Nc3ccc(CCO)cc3)ncn2)cc1 [CBK090773],110.118
5,Cc1ccc(S(=O)(=O)N(CC(=O)Nc2cccnc2)c2cccc([N+](=O)[O-])c2)cc1 [CBK266404],67.3305
6,CN(C)CCN1CCN(c2nc(-c3ccc(S(C)(=O)=O)cc3)cnc2N)CC1 [CBK063457],73.1974
7,N#Cc1nonc1NCn1nnc2ccccc21 [CBK062650],109.79
8,CNC(=O)c1sc2ccccc2c1C1CCN(C(=O)CCN(C)c2ccc(F)cc2)C1 (stereo not drawn) [CBK285878],106.842
9,OCC1CCCCC1NCCCC(c1ccc(F)cc1)c1ccc(F)cc1 (stereo not drawn) [CBK015830C],6.956
10,O=C(c1cc(-c2ccccn2)n[nH]1)N1CCC(c2ccccc2)C1 (stereo not drawn) [CBK281852],100.594
11,CN1CCCC(OC(=O)C2CCCCC2)C1 (stereo not drawn) [CBK090234],24.2158
12,Cn1cc(C2CNCCN2C(=O)CCCc2csc3ccccc23)cn1 (stereo not drawn) [CBK304274C],118.123
13,COc1cc(C(=O)N2CCN(S(=O)(=O)c3ccccc3[N+](=O)[O-])CC2)cc(OC)c1OC [CBK264182],113.625
14,Cc1cc2c(s1)c1cnn(CC(=O)N(C)C)c(=O)c1n2C [CBK284231],86.5629
15,O=C(Nc1cnc(-c2cccc(C(F)(F)F)c2)c(-c2cccnc2)n1)c1cc(-c2ccco2)n[nH]1 [CBK036878],104.845
16,O=C(N/N=C/c1cc(Br)cc(Br)c1O)C(Oc1ccccc1)Oc1ccccc1 [CBK262164],106.399
17,COc1ccc(Nc2nc(-c3cccnc3)cs2)c(OC)c1 [CBK126814],92.1057
18,OCC1CCCN1c1nc(-c2ccc(Oc3ccccc3)cc2)cn2ccnc12 (stereo not drawn) [CBK066713],120.317
19,O=C(O)c1cccc(-n2c(S)nnc2-c2ccc3ccccc3n2)c1 [CBK265810],72.2318
20,Cc1nc(C2CN(Cc3c(Cl)ccc4cccnc34)CCO2)no1 (stereo not drawn) [CBK305317],31.8644
21,CC1(C)CC(=NNC(=O)CCc2cc(C(C)(C)C)c(O)c(C(C)(C)C)c2)CC(C)(C)N1 [CBK261952],74.7582
22,COc1cc(NC(=O)N2CCN(CCc3ccccc3)CC2)cc(OC)c1OC [CBK158933],116.352
23,O=C(O)C1CC(C(=O)O)C(C(=O)O)CC1C(=O)O (stereo not drawn) [CBK261332],104.433
24,CSc1nccc(N2CCC(NCCn3c(C)cc(C)nc3=O)CC2)n1 [CBK307070],84.0762
25,COc1cccc2c1cc(C(=O)NCCn1ccnc1C)n2C [CBK283267],93.9325
26,O=C(NCCn1c(=O)oc2ccccc21)C(c1cccs1)c1cccs1 [CBK286198],107.785

row,SMILES,% of control remaining
1,CCC1C=CCN1S(=O)(=O)c1cccc(C(=O)NCc2cnn(C)c2)c1 (stereo not drawn) [CBK307536],55.6992
2,COc1cc(/C=C/c2[nH]c(=O)[nH]c(=O)c2[N+](=O)[O-])cc(Br)c1OCC(=O)O [CBK267977],96.8368
3,Cc1ccsc1C(=O)N1CCC(c2n[nH]c3ncccc23)CC1 [CBK284910],113.645
4,Cn1c(C2CC2)nc2c1CCN(Cc1cn3cc(Cl)ccc3n1)C2 [CBK305314],99.1116
5,CCCOc1ccc(S(=O)(=O)NCc2ccc3c(c2)OCO3)c2ccccc12 [CBK269059],71.6733
6,NC(=O)C1(N2CCCCC2)CCN(CC(=O)Nc2ccc(Oc3ccccc3)cc2)CC1 [CBK265774],102.201
7,COc1ccc(OC)c(NC(=O)CNC(=O)c2ccccc2F)c1 [CBK267846],117.064
8,CN1CCC(N(C)Cc2ccc3c(c2)OCO3)CC1 [CBK261564],98.9154
9,COc1cccc(Nc2cc(-c3ccco3)ncn2)c1OC [CBK090727],98.0713
10,N#Cc1cccc(S(=O)(=O)Nc2ccc(-c3nnn[nH]3)cc2)c1 [CBK155427],87.7536
11,Cc1cc(C)n(CCCNC(=O)Cc2csc(N3CCCC3=O)n2)n1 [CBK305708],47.4803
12,COC(=O)Nc1ccc(S(=O)(=O)N2CCCC(C(=O)Nc3cccc(C(F)(F)F)c3)C2)cc1 (stereo not drawn) [CBK265248],70.7936
13,O=C(O)C1CCCCC1C(=O)N1CCN(Cc2cccc(Cl)c2)CC1 (stereo not drawn) [CBK270330],62.3985
14,CC(C)(C)c1ccc(-c2nc(Nc3cccc(C(=O)O)c3)c3ccccc3n2)cc1 [CBK265229C],86.4564
15,CC(NC(=O)N1CCCCC1CO)c1ccccc1 (stereo not drawn) [CBK155988],107.664
16,CCOc1ccccc1Nc1nc(N)nc(CN2CCCCC2C)n1 (stereo not drawn) [CBK266548],109.901
17,COc1cc(C(c2c(C)n(C)n(-c3ccccc3)c2=O)c2c(C)n(C)n(-c3ccccc3)c2=O)ccc1O [CBK261690],90.662
18,Cc1ncsc1CCC(=O)NCC1CCN(c2ccccc2F)C1 (stereo not drawn) [CBK304675],39.323
19,Cc1c(Cl)cccc1S(=O)(=O)Nc1ccc(C(=O)O)cc1 [CBK034050],78.6021
20,CC(C)(C)OC(=O)N(Cc1cccs1)S(C)(=O)=O [CBK019338],63.2111
21,CC(C)OCC(O)C[S+]([O-])Cc1ccccc1 (stereo not drawn) [CBK261761],107.28
22,c1ccc(Nc2nc(-c3ccco3)cn3ccnc23)cc1 [CBK037947],134.565
23,Clc1ccccc1CSc1nnc2c(n1)OC=Nc1ccccc1-2 [CBK265085],101.359
24,O=S(=O)(Nc1nncs1)c1ccccc1 [CBK045489],104.935
25,CCOc1ccc(Nc2cc(Cl)nc(N)n2)cc1 [CBK288069],54.1911
